Where two headings read alike, the source gives them in different places.
Experiments:
[1] = system: cucumber anthracnose fungi (Colletotrichum orbiculare); test: Test Example H: cucumber anthracnose, spray treatment of cucumber plants; settings: for Test H control value class (cucumber anthracnose): 2.5 ml/pot, cucumber Sagami Hanjiro, 6 to 10 days from inoculation; for Test H control value: cucumber anthracnose, 6 to 10 days after inoculation
[2] = system: rice blast fungi (Magnaporthe grisea); format: in vivo; settings: for Test A control value class (rice blast): control value=100{1-(n/3)}; for Test A control value: rice blast
[3] = system: tomato late blight fungi (Phytophthora infestans); format: in vivo; settings: for Test F control value class (tomato late blight): control value=100{1-(n/3)}; for Test F control value: tomato late blight
[4] = spray treatment of tomato plants

SMILES	Test H control value class (cucumber anthracnose) ([1]; 250 ppm spray)	Test A control value class (rice blast) ([2]; spray treatment of rice plants)	Test F control value class (tomato late blight) [3, 4]	Test H control value ([1]; 250 ppm spray)	Test A control value ([2]; spray treatment)	Test F control value ([3]; spray treatment)	further results
CC(C)C(C)n1cc(Cl)c(=O)c(Br)c1-c1c(F)cc(F)cc1F (stereo not drawn) [Compound 42]	H (H shows the control value of more than 50%)	H (H shows the control value of more than 50%)	L (L shows the control value of 50% or less)	–	–	–	–
Cc1ccc(F)cc1-n1cc(Br)c(=O)c(Cl)c1-c1c(F)cc(F)cc1F [Compound 177]	H (H shows the control value of more than 50%)	H (H shows the control value of more than 50%)	L (L shows the control value of 50% or less)	–	–	–	–
COc1cc(F)c(-c2c(Cl)c(=O)c(Br)cn2C(C)C(C)C)c(F)c1 (stereo not drawn) [Compound 51]	H (H shows the control value of more than 50%)	L (L shows the control value of 50% or less)	L (L shows the control value of 50% or less)	–	–	–	–
CCCc1ccccc1-n1cc(Cl)c(=O)c(Cl)c1-c1c(F)cc(F)cc1F [Compound 446]	–	–	–	H (H shows the control value of more than 50%)	H (H shows the control value of more than 50%)	L (L shows the control value of 50% or less)	–
Cc1ccc(Cl)cc1-n1cc(Br)c(=O)c(Cl)c1-c1c(F)cc(F)cc1F [Compound 230]	–	–	–	–	–	–	Test H control value ([1]; 250 ppm spray (2.5 ml/pot)): H (H shows the control value of more than 50%); Test A control value ([2]; spray treatment of rice plants): H (H shows the control value of more than 50%); Test F control value [3, 4]: L (L shows the control value of 50% or less)
COc1ccc(C)c(-n2cc(Cl)c(=O)c(Br)c2-c2c(F)cc(F)cc2F)c1 [Compound 228]	–	–	–	–	–	–	Test H control value ([1]; 250 ppm spray (2.5 ml/pot)): H (H shows the control value of more than 50%); Test A control value ([2]; spray treatment of rice plants): H (H shows the control value of more than 50%); Test F control value [3, 4]: L (L shows the control value of 50% or less)
Cc1c(-c2c(F)cc(F)cc2F)n(CC(C)C)cc(Cl)c1=O [Compound 223]	–	–	–	–	–	–	Test H control value ([1]; 250 ppm spray (2.5 ml/pot)): H (H shows the control value of more than 50%); Test A control value ([2]; spray treatment of rice plants): H (H shows the control value of more than 50%); Test F control value [3, 4]: L (L shows the control value of 50% or less)
Cc1cccc(-n2cc(C)c(=O)c(C)c2-c2ccccc2)c1C [Compound 482]	–	–	–	H (H shows the control value of more than 50%)	L (L shows the control value of 50% or less)	L (L shows the control value of 50% or less)	–
CC(C)Cn1cc(Cl)c(=O)c(Br)c1-c1c(F)cc(F)cc1F [Compound 108]	H (H shows the control value of more than 50%)	H (H shows the control value of more than 50%)	L (L shows the control value of 50% or less)	–	–	–	–
CCc1c(-c2c(F)cc(F)cc2F)n(-c2cccc(F)c2C)cc(Br)c1=O [Compound 530]	–	–	–	H (H shows the control value of more than 50%)	H (H shows the control value of more than 50%)	L (L shows the control value of 50% or less)	–
Cc1ccc(OC(C)C)cc1-n1cc(Br)c(=O)c(Cl)c1-c1c(F)cccc1F [Compound 434]	–	–	–	L (L shows the control value of 50% or less)	L (L shows the control value of 50% or less)	L (L shows the control value of 50% or less)	–
Cc1c(F)cccc1-n1cc(C)c(=O)c(C)c1-c1c(F)cc(F)cc1F [Compound 437]	–	–	–	H (H shows the control value of more than 50%)	H (H shows the control value of more than 50%)	L (L shows the control value of 50% or less)	–
CCc1c(-c2c(F)cc(F)cc2F)n(-c2cccc(OC)c2C)cc(Br)c1=O [Compound 513]	–	–	–	H (H shows the control value of more than 50%)	H (H shows the control value of more than 50%)	L (L shows the control value of 50% or less)	–
